Bridge positions count the residues as written; N and C are the ends. Ends that are not written are not given here. Peptide text beside a SMILES is read from it.
Conditions: FIG. 8

Molecule	phytotoxicity
CC[C@H](C)[C@H](NC(=O)[C@H](CCCCN)NC(=O)[C@H](CC(C)C)NC(=O)[C@@H]1CSSC[C@H](NC(=O)[C@H](CC(C)C)NC(=O)[C@H](CCCCN)NC(=O)[C@@H](NC(=O)[C@@H](N)CC(C)C)[C@@H](C)CC)C(=O)N[C@@H](CCCCN)C(=O)N[C@@H](CCCCN)C(=O)N[C@@H]([C@@H](C)CC)C(=O)N[C@@H](CC(C)C)C(=O)N[C@@H](CCCCN)C(=O)N[C@@H](CCCCN)C(=O)NCC(=O)N2CCC[C@H]2C(=O)NCC(=O)N[C@@H](CCCNC(=N)N)C(=O)N[C@@H](CCCCN)C(=O)N[C@@H](CCCCN)C(=O)N[C@@H](CC(C)C)C(=O)N[C@@H]([C@@H](C)CC)C(=O)N[C@@H](CCCCN)C(=O)N[C@@H](CCCCN)C(=O)N1)C(=O)N[C@@H](CC(C)C)C(=O)O [CYS26P] (H-LIKLCKKILKKGPGRKKLIKKCLKIL-OH; disulfide 5-22)	low phytotoxcicity
LIKLIKKILKKGPGRKKLIKKILKILGPGR [Peptide P30]	low phytotoxcicity

Source: US20220053773A1 (priority 2018, published 2022)
